Data published in the supplement of paper PMC4604168 (melanoma cell lines).
The other results are listed elsewhere or left out. Repeats are few or missing, and single values can be far off.

Tests used:
Assay in all cases: cell count relative to DMSO control; melanoma cells; higher = more viable cells
Settings in all cases: library dose: low library concentration; 72 h
[1] = system: MZ2-MEL
[2] = system: MeWo
[3] = system: RPMI7951
[4] = system: RVH-421
[5] = system: SkMel28
[6] = system: SkMel2
[7] = system: SkMel30
[8] = system: UACC62
[9] = system: WM115
[10] = system: WM1716
[11] = system: WM1745
[12] = system: WM3526
[13] = system: WM3619
[14] = system: WM451Lu
[15] = system: SkMel5
[16] = system: UACC257
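Also: cell number obtained by counting DAPI-stained nuclei in high-throughput microscope images with image analysis software, screen run in 1,536-well plates.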

SMILES | cell count [1] [%] | cell count [2] [%] | cell count [3] [%] | cell count [4] [%] | cell count [5] [%] | cell count [6] [%] | cell count [7] [%] | cell count [8] [%] | cell count [9] [%] | cell count [10] [%] | cell count [11] [%] | cell count [12] [%] | cell count [13] [%] | cell count [14] [%] | cell count [15] [%] | cell count [16] [%]
C=C(c1ccc(C(=O)O)cc1)c1cc2c(cc1C)C(C)(C)CCC2(C)C [Bexarotene] + Nc1ccn([C@@H]2O[C@H](CO)[C@@H](O)C2(F)F)c(=O)n1 [gemcitabine] (first compound 2 µM, partner dose 0.0004 µM) | 86.1 | 87.8 | 60.8 | 75.8 | 85.4 | 88.8 | 93.9 | 89.2 | 92 | 83 | 82.8 | 85.6 | 86.6 | 63.8 |  | 
NC1(c2ccc(-c3nc4ccn5c(=O)[nH]nc5c4cc3-c3ccccc3)cc2)CCC1 + C#Cc1cccc(Nc2ncnc3cc(OCCOC)c(OCCOC)cc23)c1 [erlotinib] (first compound 0.4 µM, partner dose 0.8 µM) | 96.7 | 89.6 | 79.6 | 96.7 | 80.8 | 89.9 | 90.9 | 68.4 | 78.5 | 88.7 | 81.1 | 69 | 103 | 91.1 |  | 
CN(c1ncccc1CNc1nc(Nc2ccc3c(c2)CC(=O)N3)ncc1C(F)(F)F)S(C)(=O)=O + Cn1c(Nc2ccc(C(F)(F)F)cc2)nc2cc(Oc3ccnc(-c4ncc(C(F)(F)F)[nH]4)c3)ccc21 [CHIR265] (first compound 0.08 µM, partner dose 0.08 µM) | 71.2 | 73.8 | 60.3 | 46.7 | 68.5 | 67.8 | 50.3 | 44.7 | 58 | 79.2 | 42.2 | 57.9 | 61.6 | 82 |  | 
CN(c1ncccc1CNc1nc(Nc2ccc3c(c2)CC(=O)N3)ncc1C(F)(F)F)S(C)(=O)=O + CC(=O)c1c(C)c2cnc(Nc3ccc(N4CCNCC4)cn3)nc2n(C2CCCC2)c1=O [palbociclib] (first compound 0.08 µM, partner dose 0.04 µM) |  | 75.9 | 58.2 | 86.7 | 70 |  | 73.6 | 69.3 | 52.8 | 63 | 70.8 | 74.3 | 85.7 | 69.6 |  | 
NC1(c2ccc(-c3nc4ccn5c(=O)[nH]nc5c4cc3-c3ccccc3)cc2)CCC1 + CO[C@@H]1[C@H](N(C)C(=O)c2ccccc2)C[C@H]2O[C@]1(C)n1c3ccccc3c3c4c(c5c6ccccc6n2c5c31)C(=O)NC4 [Midostaurin] (first compound 0.4 µM, partner dose 0.08 µM) |  | 71.5 | 92.8 | 78.2 | 69.3 | 75.4 | 72.2 | 60.5 | 65.9 | 68.8 | 53.7 | 53.3 | 87.3 | 129 | 89.5 | 87.6
CN(c1ncccc1CNc1nc(Nc2ccc3c(c2)CC(=O)N3)ncc1C(F)(F)F)S(C)(=O)=O + COCC[n+]1c2c(n(Cc3cnccn3)c1C)C(=O)c1ccccc1C2=O [YM155] (first compound 0.08 µM, partner dose 0.0004 µM) |  | 110 | 81 | 93.1 | 75.4 |  | 77.5 | 76.1 | 89.1 | 63.3 | 80.8 | 86.2 | 89.4 | 51 |  | 
CN(c1ncccc1CNc1nc(Nc2ccc3c(c2)CC(=O)N3)ncc1C(F)(F)F)S(C)(=O)=O + C#Cc1cccc(Nc2ncnc3cc(OCCOC)c(OCCOC)cc23)c1 [erlotinib] (first compound 0.08 µM, partner dose 0.8 µM) | 85.3 | 92.9 | 62.7 | 88.1 | 82.6 |  | 100 | 79.4 | 70.3 | 80.9 | 79.7 | 91.7 | 97.7 | 72.6 |  | 
CCCS(=O)(=O)Nc1ccc(F)c(C(=O)c2c[nH]c3ncc(Cl)cc23)c1F + OCc1c[nH]c2ccccc12 [Indole-3-carbinol] (first compound 0.08 µM, partner dose 0.8 µM) |  | 124 | 108 | 88.8 | 94.3 | 102 | 103 | 75.3 | 109 | 113 | 106 | 94.5 | 83.3 | 98.9 |  | 
NC1(c2ccc(-c3nc4ccn5c(=O)[nH]nc5c4cc3-c3ccccc3)cc2)CCC1 + C[C@@H](Oc1cc(-c2cnn(C3CCNCC3)c2)cnc1N)c1c(Cl)ccc(F)c1Cl [Crizotinib] (first compound 0.4 µM, partner dose 0.2 µM) | 95.7 | 80.2 | 85.2 | 74.1 | 61.2 | 90.1 | 88 | 68 | 68.1 | 89.1 | 84.2 | 57.4 | 98.5 | 90.2 |  | 
CS(=O)(=O)c1ccc(C(=O)Nc2ccc(Cl)c(-c3ccccn3)c2)c(Cl)c1 [vismodegib] + C[C@]1(c2nc3c(C(N)=O)cccc3[nH]2)CCCN1 [Veliparib] (first compound 1 µM, partner dose 1.4 µM) | 106 | 90.9 | 91.8 | 78.2 | 96.5 | 102 | 91.6 | 96.5 | 84.9 | 94.3 | 98.8 | 106 | 111 | 112 |  | 
